# Hit rate of the full screen: of about 310,000 compounds, about 14,000 (4.5%) showed an effect of 50% or more. The effect is printed as a negative number. The list shows a part of the results.
# Target: human ether-à-go-go-related gene (hERG) potassium channel (human, UniProt Q12809)
# Experiment: primary screen, population patch clamp on CHO cells stably expressing hERG
# 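Note: peak tail current of the secondary pulse compared with the same well before compound.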
# Chain of human ether-à-go-go-related gene (hERG) potassium channel (Q12809 whole entry, looked up): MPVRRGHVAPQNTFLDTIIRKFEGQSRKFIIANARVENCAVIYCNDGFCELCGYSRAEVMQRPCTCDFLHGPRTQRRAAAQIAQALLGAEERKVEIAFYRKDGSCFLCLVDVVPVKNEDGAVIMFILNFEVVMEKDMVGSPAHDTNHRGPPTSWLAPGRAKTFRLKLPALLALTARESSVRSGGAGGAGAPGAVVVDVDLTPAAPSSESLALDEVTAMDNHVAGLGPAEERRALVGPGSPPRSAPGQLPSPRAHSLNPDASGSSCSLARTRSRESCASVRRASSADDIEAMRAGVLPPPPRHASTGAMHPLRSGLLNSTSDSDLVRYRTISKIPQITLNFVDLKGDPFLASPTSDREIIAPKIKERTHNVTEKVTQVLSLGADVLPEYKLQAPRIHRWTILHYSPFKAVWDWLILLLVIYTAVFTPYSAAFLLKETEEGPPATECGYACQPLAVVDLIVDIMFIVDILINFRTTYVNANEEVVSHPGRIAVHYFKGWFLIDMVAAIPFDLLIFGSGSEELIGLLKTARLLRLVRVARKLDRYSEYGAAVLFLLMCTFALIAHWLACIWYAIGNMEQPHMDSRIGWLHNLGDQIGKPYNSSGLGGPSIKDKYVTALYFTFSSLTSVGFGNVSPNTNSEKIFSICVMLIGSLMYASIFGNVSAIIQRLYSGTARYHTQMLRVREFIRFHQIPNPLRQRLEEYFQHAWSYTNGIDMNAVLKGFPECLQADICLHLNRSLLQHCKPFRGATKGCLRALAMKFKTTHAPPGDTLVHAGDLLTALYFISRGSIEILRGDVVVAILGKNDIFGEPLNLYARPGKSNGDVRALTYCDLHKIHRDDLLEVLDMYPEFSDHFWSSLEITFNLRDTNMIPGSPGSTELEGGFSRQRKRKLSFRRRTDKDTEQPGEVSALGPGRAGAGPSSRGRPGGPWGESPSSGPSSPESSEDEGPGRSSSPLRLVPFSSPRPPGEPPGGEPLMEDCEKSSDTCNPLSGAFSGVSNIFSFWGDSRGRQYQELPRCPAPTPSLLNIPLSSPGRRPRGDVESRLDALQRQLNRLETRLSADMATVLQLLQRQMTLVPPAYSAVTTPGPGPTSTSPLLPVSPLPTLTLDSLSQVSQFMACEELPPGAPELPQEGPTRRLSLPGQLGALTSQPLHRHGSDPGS
row,Compound,"hERG current change (%, negative = inhibition) at 10uM [%]"
1,Cc1cccc(N(CC(=O)N2CCCC2)S(=O)(=O)c2ccccc2)c1C,-11.9
2,CC(C)NC(=O)CCCC(=O)NC(C)C,19.9
3,c1ccc(OCCOc2ncnc3ccccc23)cc1,7.39
4,COc1cccc(CNC(=O)CSC(=S)N2CCCC2)c1,2.79
5,CCCCNC(=O)COC(=O)c1cc(S(=O)(=O)N2CCCCCC2)ccc1OC,-39.5
6,O=C(CN(Cc1ccccc1Cl)C(=O)c1csnn1)NCCc1ccccc1,1.49
7,Cc1cc(=O)[nH]c(N/N=C/c2sccc2C)n1,-1.84
8,O=C(OCN1C(=O)c2ccccc2C1=O)c1ccc(Cl)nc1,-0.701
9,O=C(CSc1nnc(CCCN2C(=O)c3cccc4cccc(c34)C2=O)n1-c1ccccc1)NCCCN1CCOCC1,-34.9
10,Cc1ccc(S(=O)(=O)N2CCC(C(=O)OCC(=O)N(C)CC(=O)Nc3ccc(F)cc3)CC2)cc1C,-41.8
11,COc1ccccc1N1C(=O)S/C(=C\c2ccc(C)s2)C1=O,22.2
12,CC(C)CCNC(=O)C(=O)Nc1ccccc1,3.7
13,COCCN1C(=O)C(=O)/C(=C(/O)c2ccc(S(=O)(=O)N3CCOCC3)cc2)C1c1ccc(OC)c(OC)c1 (stereo not shown),8.15
14,COc1ccc2c(C)c(CC(=O)N3C[C@H]4C[C@@H](C3)c3cccc(=O)n3C4)c(=O)oc2c1OC,-1.03
15,S=c1[nH]cc(-c2ccccc2)[nH]1,15.8
16,COc1ccc(-c2nc(C#N)c(NCc3ccco3)o2)cc1,11.6
17,Cn1cccc1/C=C1/SC(=O)N(CC(=O)N2CCCC2)C1=O,16.1
18,CC(=O)CSc1nnc(-c2ccco2)n1-c1ccccc1,-11.7
19,CCOc1ccc2nc3c(cc2c1)CN(CCCO)C(=NCCOC)S3,1.71
20,CN(C1CCCCC1)S(=O)(=O)c1ccc(C(=O)Nc2sc3c(c2C(N)=O)CC(C)(C)NC3(C)C)cc1,15.6
21,COc1cc(C)ccc1OCCOc1cc(C)ccc1Cl,8.79
22,Cc1ccccc1NC(=S)NC(NC(=O)N(C)C)C(Cl)(Cl)Cl (stereo not shown),8.39

row,Compound,"hERG current change (%, negative = inhibition) at 10uM [%]"
1,CCOc1ccc(Oc2ccc(C(F)(F)F)cc2NC(=O)C2=COCCO2)cc1,13.6
2,COCCNC(=O)Cc1c(C)c2cc3c(cc2oc1=O)OC(C)(C)CC3,12.3
3,CC(OC(=O)c1cccc(-n2cnnn2)c1)C(=O)NCc1ccccc1 (stereo not shown),0.976
4,C=CCSc1nc2c(C(=O)OCC)nnn2c2ccccc12,10.5
5,C/C(=N/O)c1no[n+]([O-])c1/C(C)=N\O,-6.92
6,Cc1occc1C(=O)N(C)CC1CCCN(CCc2ccccc2F)C1 (stereo not shown),-51.1
7,COc1ccccc1N1CCN(C(=O)c2ccc(CS(=O)(=O)c3ccccc3OC)o2)CC1,-7.39
8,CCc1ccc(NC(=O)Cn2nnc(C(=O)NCCc3ccc(OC)c(OC)c3)c2N)cc1,11.6
9,CCCc1nnc(NC(=O)c2ccc(N3C(=O)C4C5C=CC(C5)C4C3=O)cc2)s1 (stereo not shown),5.65
10,COc1ccc2ncc(OC(C)=O)cc2c1,17.4
11,CCOC(=O)c1[nH]c(C)c(C(=O)OCC(=O)N(C)C2CCS(=O)(=O)C2)c1C (stereo not shown),29
12,Cn1nc(C(F)(F)F)c(-c2cccc(C(F)(F)F)c2)c1NC(=O)c1ccco1,-66.6
13,CCCn1nnc(NC(=S)NC(=O)CC)n1,9.28
14,COc1cc(C(=O)Nc2cc(C(F)(F)F)ccc2N2CCOCC2)ccc1O,-26.6
15,CCCN(CC(=O)Nc1ccccc1OC)Cc1c(O)ccc2ccccc12,7.41
16,O=C(NCc1nnc(SCC(=O)N2CCCC2)o1)c1ccccc1,20.8
17,COc1cccc(CNC(=O)COC(=O)CNC(=O)c2ccc(-c3ccccc3)cc2)c1,8.82
18,CC(C)Cc1nnc(NC(=O)c2ccc(N3CCCC3=O)cc2)s1,2.3
19,COP(=O)(OC)C(Nc1ccc(C)cc1)c1ccc([N+](=O)[O-])cc1 (stereo not shown),-9.95
20,Cc1cc(C)c(C(N)=O)c(SCC(=O)c2ccc(Cl)cc2)n1,-3.74
21,COc1cc(Cl)c(C)cc1NC(=O)CSc1sc2c(O)cc(=O)[nH]c2c1C#N,11
22,COc1cc(C(=O)NCC(=O)n2nc(C)cc2C)cc(OC)c1OC,9.83

row,Compound,"hERG current change (%, negative = inhibition) at 10uM [%]"
1,CS(=O)(=O)N1N=C(c2ccc3nccnc3c2)CC1c1ccccc1 (stereo not shown),-7.62
2,C=CCSC1=C(C#N)C(c2ccccc2OC)CC(=O)N1 (stereo not shown),-2.19
3,O=C(COC(=O)c1ccccc1SCC(=O)N1CCCC1)NC1CCS(=O)(=O)C1 (stereo not shown),-5.66
4,CCCc1[nH]nc2c1C(c1c(C)nn(-c3ccccc3)c1Cl)C(C#N)=C(N)O2 (stereo not shown),-3.86
5,Cc1ccc(C(=O)N2CCn3c(C)ccc3C2C)cc1 (stereo not shown),-2.41
6,COc1ccc(C(=O)CC(=O)C(=O)NCCc2cccc(C)c2)cc1,7.31
7,Cc1cc(NC(=O)CSc2nc3ccccc3n2CC(C)C)no1,19.2
8,O=C(Nc1ccccc1)c1cc2ccccc2o1,-7.55
9,NC(=O)C1CC(=O)N(c2ccc(OCC(=O)NCc3ccccc3)cc2)C1 (stereo not shown),16.6
10,CCCc1ccc(-c2cc(C(=O)Nc3ccc([N+](=O)[O-])cn3)c3ccccc3n2)cc1,5.62
11,CC(C)C(=O)NC(NC(=S)Nc1ccc(S(N)(=O)=O)cc1)C(Cl)(Cl)Cl (stereo not shown),12.8
12,Cc1ccc(-n2nnnc2SCc2nc3sc(C)c(C)c3c(=O)[nH]2)cc1,-11.7
13,COc1cccc(/C=N/NC(=O)c2cc3c(OC)ccc(OC)c3[nH]2)c1O,31.1
14,CCN(C(=O)COC(=O)CNC(=O)c1cccc(C)c1)c1c(N)n(Cc2ccccc2)c(=O)[nH]c1=O,14.3
15,Cc1ccc(OC(=O)c2ccc(S(=O)(=O)N(C)C)cc2)c(-n2nc3ccccc3n2)c1,3.83
16,C[C@H](NC(=O)c1nc[nH]c1C(=O)N1CCN(c2ccccc2)CC1)C(=O)OC(C)(C)C,2
17,COc1ccc2c(c1)CC(C)C/C2=N\NC(=O)c1ccco1 (stereo not shown),27.5
18,CCCCCCC(=O)N(O)C1CC(=O)N(Cc2ccccc2)C1=O (stereo not shown),-1.37
19,O=C(N/N=C/c1ccc(Cl)cc1)C(=O)N1CCCCCC1,-5
20,Cc1cc(N)n2nc(C(F)(F)F)nc2n1,17.4
21,COc1ccc2cc(CCNC(=O)CC(C)(C)C)c(=O)[nH]c2c1,-10.2
22,Cn1c(NCc2ccco2)nc2c1c(=O)n(Cc1ccc(Cl)c(Cl)c1)c(=O)n2C,-15.6

row,Compound,"hERG current change (%, negative = inhibition) at 10uM [%]"
1,Cc1ccc(/C=C/C(=O)N2CCN(c3cccc(C(F)(F)F)c3)CC2)cc1,4.97
2,CC1(C)CC(=O)C=C(Nc2ccccc2F)C1,-8.1
3,Cc1c(Cc2ccccc2)c(=O)oc2c(C)c(OCC(=O)NCc3ccccn3)ccc12,-5.56
4,CN(Cc1ccco1)C(=O)C1CCN(c2nnc(-n3cccc3)s2)CC1,-46.6
5,CCOC(=O)c1sc(C)c2c(=O)n(CCc3ccccc3)nnc12,9.94
6,Cc1csc(NC(=O)C2CCCO2)n1 (stereo not shown),-1.48
7,CCC1(CC)C(=O)NN(c2ccccc2)C1=O,2.36
8,COc1ccc(S(=O)(=O)n2nc(OCc3cccs3)cc2N)cc1,-22.3
9,NSc1nc(N)c2nc(-c3ccccc3)c(-c3ccccc3)nc2n1,4.96
10,Cc1ccc(NC(=O)CN(C)CC(=O)Nc2ccc(F)c(Cl)c2)cc1.O=C(O)C(=O)O,-12.9
11,O=C(NCc1ccc(Cl)cc1)C1CCCN(c2ncnc3c2nc2n3CCCCC2)C1 (stereo not shown),-55.4
12,C=CCn1c(SCC(=O)Nc2ccc(C(=O)O)cc2)nnc1-c1cccnc1,34.6
13,N#C/C(=C\c1ccc(OCc2ccc(Br)cc2)cc1)C(=O)Nc1cccc(C(=O)O)c1,17.8
14,Cc1ccc(C2(C)NC(=O)N(CC(=O)NC(=O)NC(C)C)C2=O)cc1 (stereo not shown),-2.84
15,CN(C)c1ccc(S(=O)(=O)N2CCCCC2)cc1NC(=O)CCNC(=O)c1ccco1,-9.54
16,O=C(CSCc1cccc(Cl)c1)Nc1ccccc1-c1ccccc1,-16.2
17,Cc1cccc(NC(=O)COc2coc(CN3CCN(Cc4ccccc4)CC3)cc2=O)c1,-65
18,O=C1NCC(COCc2ccco2)O1 (stereo not shown),10.8
19,Clc1c(CSc2nc3ccccc3o2)nc2ccccn12,-20.4
20,COCCN1C(=O)C(=O)/C(=C(/O)c2ccc(C)cc2)C1c1ccccn1 (stereo not shown),37.2
21,Fc1ccc(N2CCN(C3CCC(c4ccccc4)CC3)CC2)cc1 (stereo not shown),-17.4
22,CCOC(=O)c1nnc(-c2ccccc2)nc1Oc1ccc(Cl)cc1,-7.45

# From paper PMC4336329 (PLoS ONE, 2015)
